Results are given in words; binding and its absence hold for the method and conditions named. In cells and extracts the contact can be indirect. Some results given as binding are weak or reduced against the parent protein; the word gives no strength.
How the values were obtained:
[1] = biological target: GFP-FAN1 wild-type (wt), full-length (human) (UniProt Q9Y2M0); test: co-IP; GFP-Trap agarose on whole-cell extracts (HEK293 eGFP-FAN1 cells induced with Dox, or HEK293 cells transfected with GFP-FAN1 constructs, with FLAG-USP7 in Fig. 1G); NP-40 buffer with 120 mM NaCl, Benzonase; 2 h or overnight, 4 °C; immunoblotting
[2] = biological target: FLAG-USP7 wt, full-length (human) (UniProt Q93009); test: co-IP; anti-FLAG M2 affinity resin on whole-cell extracts of HEK293, HEK293 eGFP-FAN1 (Dox-induced) or HEK293T cells transfected with FLAG-USP7 constructs; NP-40 buffer with 120 mM NaCl, Benzonase; 4 °C; immunoblotting

The chains behind the UniProt entries cited, without tags or fusion partners.
UniProt Q9Y2M0: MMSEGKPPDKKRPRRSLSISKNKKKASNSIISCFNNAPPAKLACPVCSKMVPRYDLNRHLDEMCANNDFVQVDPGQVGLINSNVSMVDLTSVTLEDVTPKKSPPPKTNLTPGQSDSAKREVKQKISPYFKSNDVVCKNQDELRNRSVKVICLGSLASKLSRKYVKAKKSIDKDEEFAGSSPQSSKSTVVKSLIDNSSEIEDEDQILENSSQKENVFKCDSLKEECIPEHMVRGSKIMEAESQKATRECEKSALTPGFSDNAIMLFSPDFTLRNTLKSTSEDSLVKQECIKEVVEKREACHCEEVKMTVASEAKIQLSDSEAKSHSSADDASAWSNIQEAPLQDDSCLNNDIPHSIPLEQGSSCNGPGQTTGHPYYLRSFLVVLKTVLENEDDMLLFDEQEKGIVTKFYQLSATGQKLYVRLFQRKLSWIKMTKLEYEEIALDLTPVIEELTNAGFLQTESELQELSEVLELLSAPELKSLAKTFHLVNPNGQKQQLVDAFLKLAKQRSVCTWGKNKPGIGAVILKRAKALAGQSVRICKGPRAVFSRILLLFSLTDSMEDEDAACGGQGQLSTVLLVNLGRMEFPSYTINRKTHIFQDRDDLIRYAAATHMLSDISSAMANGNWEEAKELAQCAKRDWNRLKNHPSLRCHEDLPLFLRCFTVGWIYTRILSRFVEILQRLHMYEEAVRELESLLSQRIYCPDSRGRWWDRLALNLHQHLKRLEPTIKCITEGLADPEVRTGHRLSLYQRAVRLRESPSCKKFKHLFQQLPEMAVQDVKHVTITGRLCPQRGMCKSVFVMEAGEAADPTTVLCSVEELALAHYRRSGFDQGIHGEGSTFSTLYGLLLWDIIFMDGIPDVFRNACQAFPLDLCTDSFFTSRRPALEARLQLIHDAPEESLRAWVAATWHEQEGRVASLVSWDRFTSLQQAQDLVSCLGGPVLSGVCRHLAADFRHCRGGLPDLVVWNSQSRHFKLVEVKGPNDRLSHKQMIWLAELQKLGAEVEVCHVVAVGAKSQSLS
UniProt Q93009: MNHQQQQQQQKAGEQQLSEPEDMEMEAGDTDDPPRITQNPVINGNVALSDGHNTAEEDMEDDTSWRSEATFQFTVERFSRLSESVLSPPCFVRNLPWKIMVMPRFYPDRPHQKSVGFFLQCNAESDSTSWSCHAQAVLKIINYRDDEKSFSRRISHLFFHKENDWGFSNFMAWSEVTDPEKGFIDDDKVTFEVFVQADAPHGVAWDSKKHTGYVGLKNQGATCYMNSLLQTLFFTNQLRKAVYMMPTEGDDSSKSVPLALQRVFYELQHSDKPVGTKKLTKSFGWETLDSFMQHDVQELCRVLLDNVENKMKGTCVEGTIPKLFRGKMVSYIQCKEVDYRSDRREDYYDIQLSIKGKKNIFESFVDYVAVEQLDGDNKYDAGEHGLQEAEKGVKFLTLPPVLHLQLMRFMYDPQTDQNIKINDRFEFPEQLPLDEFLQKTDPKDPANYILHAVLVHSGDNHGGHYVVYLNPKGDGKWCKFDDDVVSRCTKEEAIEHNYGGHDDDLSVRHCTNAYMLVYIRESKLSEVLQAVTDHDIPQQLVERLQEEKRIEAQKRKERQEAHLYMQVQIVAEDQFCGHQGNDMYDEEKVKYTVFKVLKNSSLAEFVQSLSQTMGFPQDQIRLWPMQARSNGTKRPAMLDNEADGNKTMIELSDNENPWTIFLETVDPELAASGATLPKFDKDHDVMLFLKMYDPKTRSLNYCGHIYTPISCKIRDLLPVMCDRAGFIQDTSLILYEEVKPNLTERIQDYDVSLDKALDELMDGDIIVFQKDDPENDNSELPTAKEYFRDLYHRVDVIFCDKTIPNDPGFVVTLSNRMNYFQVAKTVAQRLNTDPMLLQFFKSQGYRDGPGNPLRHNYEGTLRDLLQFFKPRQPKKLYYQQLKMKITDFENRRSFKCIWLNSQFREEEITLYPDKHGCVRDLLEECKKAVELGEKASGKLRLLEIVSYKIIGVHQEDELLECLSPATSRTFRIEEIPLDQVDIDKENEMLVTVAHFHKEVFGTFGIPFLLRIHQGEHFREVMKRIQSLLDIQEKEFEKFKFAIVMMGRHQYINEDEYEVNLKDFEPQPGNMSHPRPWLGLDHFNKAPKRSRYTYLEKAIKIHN

B1: endogenous USP48 (HEK293 cells) (enzyme, UniProt Q86UV5 1-1035)
chain: MAPRLQLEKAAWRWAETVRPEEVSQEHIETAYRIWLEPCIRGVCRRNCKGNPNCLVGIGEHIWLGEIDENSFHNIDDPNCERRKKNSFVGLTNLGATCYVNTFLQVWFLNLELRQALYLCPSTCSDYMLGDGIQEEKDYEPQTICEHLQYLFALLQNSNRRYIDPSGFVKALGLDTGQQQDAQEFSKLFMSLLEDTLSKQKNPDVRNIVQQQFCGEYAYVTVCNQCGRESKLLSKFYELELNIQGHKQLTDCISEFLKEEKLEGDNRYFCENCQSKQNATRKIRLLSLPCTLNLQLMRFVFDRQTGHKKKLNTYIGFSEILDMEPYVEHKGGSYVYELSAVLIHRGVSAYSGHYIAHVKDPQSGEWYKFNDEDIEKMEGKKLQLGIEEDLAEPSKSQTRKPKCGKGTHCSRNAYMLVYRLQTQEKPNTTVQVPAFLQELVDRDNSKFEEWCIEMAEMRKQSVDKGKAKHEEVKELYQRLPAGAEPYEFVSLEWLQKWLDESTPTKPIDNHACLCSHDKLHPDKISIMKRISEYAADIFYSRYGGGPRLTVKALCKECVVERCRILRLKNQLNEDYKTVNNLLKAAVKGSDGFWVGKSSLRSWRQLALEQLDEQDGDAEQSNGKMNGSTLNKDESKEERKEEEELNFNEDILCPHGELCISENERRLVSKEAWSKLQQYFPKAPEFPSYKECCSQCKILEREGEENEALHKMIANEQKTSLPNLFQDKNRPCLSNWPEDTDVLYIVSQFFVEEWRKFVRKPTRCSPVSSVGNSALLCPHGGLMFTFASMTKEDSKLIALIWPSEWQMIQKLFVVDHVIKITRIEVGDVNPSETQYISEPKLCPECREGLLCQQQRDLREYTQATIYVHKVVDNKKVMKDSAPELNVSSSETEEDKEEAKPDGEKDPDFNQSNGGTKRQKISHQNYIAYQKQVIRRSMRHRKVRGEKALLVSANQTLKELKIQIMHAFSVAPFDQNLSIDGKILSDDCATLGTLGVIPESVILLKADEPIADYAAMDDVMQVCMPEEGFKGTGLLGH
Question: B1 was tested. Which binding [1] did it give?
Answer: binds

B2: RNF169 (protein, UniProt Q8NCN4 1-708)
chain: MAAAGPSTRASSAAAAAALSRRGRRGRCDETAAAKTGAPGPASGPSLLVLSPPLLQPPLPPRPEESGCAGCLEPPGEAAALPCGHSLCRGCAQRAADAAGPGCPRCRARGPGWARRRARDDGQADSEVLGECARRSQPERCRPRRDGGAAAAGPRPEQEPRAAPAEPDFIFRAPIKLSKPGELREEYESLRKLREEKLQEEKPSEDQIHKLLPEDTETGKRKMDEQKKRDEPLVLKTNLERCPARLSDSENEEPSRGQMTQTHRSAFVSKNNSYSLAFLAGKLNSKVERSQSCSDTAQERAKSRVRAVPGNKAKVTTMTPASNPIIGVLLSTQNNRCVSAPDLTIEKRLPFSSLSSLASLHKPERSVSPESNDSISEELNHFKPIVCSPCTPPKRLPDGRVLSPLIIKSTPRNLNRSLQKQTSYEASPRILKKWEQIFQERQIKKTLSKATLTSLAPEMGEELLGSEGIHSSKEKPLVAVNTRLSGGQVLSEYTGPTSADLDHFPSVSQTKAEQDSDNKSSTEIPLETCCSSELKGGGSGTSLEREQFEGLGSTPDAKLDKTCISRAMKITTVNSVLPQNSVLGGVLKTKQQLKTLNHFDLTNGVLVESLSEEPLPSLRRGRKRHCKTKHLEQNGSLKKLRQTSGEVGLAPTDPVLREMEQKLQQEEEDRQLALQLQRMFDNERRTVSRRKGSVDQYLLRSSNMAGAK
Question: Which binding [2] does the source give for B2 here?
Answer: binds
